From the antibiotic and cytotoxicity screens of Wong et al. (2023) come the findings set out here.

This is one part of the list.

The subject of one assay is HSkMC. Put plainly: cytotoxicity call (relative viability < 0.9). The following applies: 10 µM.
The next assay deals with S. aureus RN4220. Put plainly: growth inhibition call (relative growth <= 0.2). The following applies: 50 µM.

In the case of `C[C@H]1CN([C@@H](C)CO)C(=O)c2cccc(NC(=O)C3CCCCC3)c2O[C@@H]1CN(C)Cc1ccc(C(F)(F)F)cc1`, the cytotoxicity call in the assay with HSkMC was “inactive”. The growth inhibition call in the assay on S. aureus RN4220 was “inactive”.
Turning to `Cc1ccc(-c2ccc3c(c2)O[C@@H](CN(C)C(=O)Nc2ccc(C(F)(F)F)cc2)[C@@H](C)CN([C@@H](C)CO)S3(=O)=O)cc1`, in the assay with HSkMC, the cytotoxicity call is “inactive”. For the same compound, the growth inhibition call with S. aureus RN4220 was “inactive”.
`O=C(C[C@@H]1C[C@H]2c3cc(NC(=O)c4ccc5c(c4)OCO5)ccc3O[C@H]2[C@@H](CO)O1)NCc1ccc(Oc2ccccc2)cc1`: the cytotoxicity call in the assay on HSkMC is “inactive”. In addition, the growth inhibition call in the assay with S. aureus RN4220 was “inactive”.
As for `CN(C)CCCNC(=O)C[C@@H]1CC[C@H]2[C@@H](COC[C@@H](O)CN2S(=O)(=O)c2ccc(F)cc2)O1`, the cytotoxicity call in the assay with HSkMC is “inactive”. Moreover, the growth inhibition call in the assay on S. aureus RN4220 is “inactive”.
For `COC(=O)C1=CO[C@@H](O[C@@H]2O[C@H](CO)[C@@H](O)[C@H](O)[C@H]2O)[C@@H]2[C@@](C)(O)[C@@H](OC(=O)/C=C/c3ccc(O)cc3)C[C@]12O`, the cytotoxicity call with HSkMC was “inactive”. The growth inhibition call with S. aureus RN4220 was “inactive”.
As to `Nc1ncnc2c1ncn2[C@H]1O[C@H](COP(=O)(O)O)[C@@H](O)[C@H]1O`, in the assay with HSkMC, the cytotoxicity call is “inactive”. In the assay with S. aureus RN4220, the growth inhibition call was “inactive”.
On to `CC(C)NC(=O)Nc1ccc2c(c1)C(=O)N([C@@H](C)CO)C[C@@H](C)[C@@H](CN(C)Cc1ccc(C(F)(F)F)cc1)OCCCC[C@H](C)O2`, for which the cytotoxicity call in the assay with HSkMC was “inactive”. Further, the growth inhibition call in the assay with S. aureus RN4220 is “inactive”.
Take `COc1ccc2c3c([nH]c2c1)[C@H](CO)N(C[C@]13CCN(CC1)C(=O)c1ccccc1F)C(=O)Nc1ccc(cc1)F`: the cytotoxicity call with HSkMC was “inactive”. In addition, the growth inhibition call in the assay on S. aureus RN4220 is “inactive”.
On to `Cc1noc(C)c1NC(=O)Nc1ccc2c(c1)CC(=O)N([C@@H](C)CO)C[C@H](C)[C@H](CN(C)Cc1ccc(-c3ccccc3)cc1)O2`, for which, in the assay with HSkMC, the cytotoxicity call was “inactive”. Also, the growth inhibition call in the assay on S. aureus RN4220 is “inactive”.
With `Cc1noc(C)c1NC(=O)Nc1ccc2c(c1)CC(=O)N([C@@H](C)CO)C[C@H](C)[C@@H](CN(C)S(C)(=O)=O)O2`, the cytotoxicity call in the assay with HSkMC is “inactive”. The growth inhibition call in the assay on S. aureus RN4220 is “inactive”.
Regarding `Cc1nc(CO)co1`, the cytotoxicity call in the assay on HSkMC is “inactive”. Besides, the growth inhibition call in the assay on S. aureus RN4220 is “inactive”.
Regarding `C[C@@H]1CN([C@H](C)CO)C(=O)c2cccc(NC(=O)c3nc4ccccc4s3)c2O[C@@H]1CN(C)C(=O)Nc1ccc(C(F)(F)F)cc1`, the cytotoxicity call with HSkMC was “inactive”. In addition, the growth inhibition call with S. aureus RN4220 was “inactive”.
On to `COc1ccc(C#Cc2ccc3c(c2)O[C@H](CN(C)S(=O)(=O)c2ccccc2F)[C@@H](C)CN([C@@H](C)CO)S3(=O)=O)cc1`, for which the cytotoxicity call in the assay on HSkMC was “inactive”. In addition, in the assay on S. aureus RN4220, the growth inhibition call was “inactive”.
For `O=C(C[C@@H]1CC[C@@H]2[C@H](COC[C@H](O)CN2S(=O)(=O)c2ccc(F)cc2)O1)NCCN1CCCCC1`, the cytotoxicity call in the assay with HSkMC is “inactive”. The growth inhibition call in the assay on S. aureus RN4220 was “inactive”.
As to `COc1ccc(CN(C)C[C@@H]2OCCCC[C@@H](C)Oc3ccc(NC(=O)Nc4cccc5ccccc45)cc3C(=O)N([C@@H](C)CO)C[C@@H]2C)cc1`, the cytotoxicity call in the assay with HSkMC is “inactive”. In addition, the growth inhibition call with S. aureus RN4220 was “inactive”.
In the case of `COC(=O)c1cc(-c2ccccc2)c(=O)n2c1N(C)[C@@]1(COCc3ccc(OC)cc3)Oc3ccccc3[C@@H]2[C@H]1CO[Si](C)(C)C(C)(C)C`, the cytotoxicity call in the assay on HSkMC was “inactive”. Also, the growth inhibition call with S. aureus RN4220 was “inactive”.
Take `NCCCC[C@@H](N)C(=O)N[C@@H](Cc1ccc(O)cc1)C(=O)N[C@@H](CCCCN)C(=O)O`: the cytotoxicity call in the assay with HSkMC is “inactive”. Further, the growth inhibition call in the assay with S. aureus RN4220 was “inactive”.
For `CC(C)C[C@@H]1NC(=O)[C@@H]2C[C@H](C(=O)NCCCCCNC(=O)CS)[C@H](c3ccc(O)cc3)N2C1=O`, the cytotoxicity call with HSkMC was “inactive”. The growth inhibition call in the assay with S. aureus RN4220 is “inactive”.
For the compound `C[C@@H]1CN([C@@H](C)CO)S(=O)(=O)c2ccc(C#Cc3cccc(F)c3)cc2O[C@@H]1CN(C)S(=O)(=O)c1ccccc1F`, in the assay on HSkMC (human skeletal muscle cells), the cytotoxicity call is “inactive”. Moreover, in the assay on S. aureus RN4220, the growth inhibition call is “inactive”.
`CCCNC(=O)N1C[C@]2(CCN(CC2)S(=O)(=O)c2ccc(cc2)OC)c2c(n(c3cc(ccc23)OC)C)[C@H]1CO`: the cytotoxicity call in the assay with HSkMC was “inactive”. Also, the growth inhibition call with S. aureus RN4220 is “inactive”.
For `Cc1noc(C)c1NC(=O)Nc1ccc2c(c1)C(=O)N([C@H](C)CO)C[C@H](C)[C@@H](CN(C)S(=O)(=O)c1ccc(F)cc1)OCCCC[C@@H](C)O2`, the cytotoxicity call with HSkMC is “inactive”. For the same compound, in the assay with S. aureus RN4220, the growth inhibition call is “inactive”.
For the compound `C[C@@H]1CCCCO[C@@H](CN(C)Cc2ccncc2)[C@H](C)CN([C@@H](C)CO)C(=O)c2cc(NC(=O)C3CCCCC3)ccc2O1`, the cytotoxicity call with HSkMC was “inactive”. Moreover, the growth inhibition call with S. aureus RN4220 is “inactive”.
Consider `CC(C)NC(=O)N(C)C[C@H]1OCCCC[C@H](C)Oc2ccc(NC(=O)Nc3ccccc3)cc2C(=O)N([C@H](C)CO)C[C@@H]1C`, for which the cytotoxicity call with HSkMC was “inactive”. For the same compound, the growth inhibition call in the assay with S. aureus RN4220 was “inactive”.
For `Cc1noc(C)c1S(=O)(=O)Nc1ccc2c(c1)C(=O)N([C@@H](C)CO)C[C@@H](C)[C@H](CN(C)C(=O)Nc1ccccc1)OCCCC[C@@H](C)O2`, the cytotoxicity call in the assay with HSkMC is “inactive”. In the assay with S. aureus RN4220, the growth inhibition call is “inactive”.
`C[C@H]1CN([C@@H](C)CO)C(=O)c2cc(NC(=O)Nc3ccc(F)cc3)ccc2O[C@@H]1CN(C)S(=O)(=O)c1cn(C)cn1`: the cytotoxicity call with HSkMC was “inactive”. Moreover, in the assay on S. aureus RN4220, the growth inhibition call is “inactive”.
`C[C@H]1[C@H]([Si](C)(C)F)[C@@H](CCO)O[C@]12C(=O)N(Cc1cccc(N3C(=O)COc4ccccc43)c1)c1ccccc12`: the cytotoxicity call with HSkMC is “inactive”. Further, in the assay with S. aureus RN4220, the growth inhibition call is “inactive”.
For the compound `Clc1ccc2c(c1)[C@H]1C=CC[C@@H]1[C@@H](c1ccccc1)N2`, in the assay with HSkMC, the cytotoxicity call was “inactive”. Also, the growth inhibition call with S. aureus RN4220 is “inactive”.
Take `CC(C)NC(=O)Nc1cccc2c1O[C@H](CN(C)S(=O)(=O)c1ccc(Cl)cc1)[C@H](C)CN([C@@H](C)CO)C2=O`: the cytotoxicity call in the assay with HSkMC is “inactive”. Besides, the growth inhibition call in the assay with S. aureus RN4220 was “inactive”.
As for `C[C@@H]1CCCCO[C@@H](CN(C)Cc2ccc(Cl)c(Cl)c2)[C@@H](C)CN([C@H](C)CO)C(=O)c2cc(NS(C)(=O)=O)ccc2O1`, the cytotoxicity call with HSkMC is “inactive”. Further, the growth inhibition call with S. aureus RN4220 is “inactive”.
